# From PubChem BioAssay AID743279 (National Center for Advancing Translational Sciences (NCATS), 2014)
# In all, about 360,000 compounds went through this assay and about 17,000 (4.7%) were called active. Inconclusive means that the source gave no clear call. Such entries were picked first, then a sample of the others. No stated cut-off is given here; in the data, active means activity change below about -50%; inconclusive means mostly about -30% to -49%; inactive means weaker than that.
# Assay: qHTS for Inhibitors of Inflammasome Signaling: IL-1-beta AlphaLISA Primary Screen
# Conditions: THP-1 LPS/ATP IL-1B secretion, 16 h; at 57.5 µM, active compounds read low
# In short: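 THP-1 cells pretreated 1 hr with compounds (up to 57.5 uM final), then stimulated with LPS (250 ng/mL final) plus ATP (1.25 mM final); secreted IL-1B measured by AlphaLISA after 16 hr, decreased signal indicating inhibition.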
# On the % scale 0 is the no-effect control and ±100 the full control effect.
row,Compound,activity change
1,O=C(C[n+]1ccc2ccccc2c1)c1ccc2ccc3ccccc3c2c1,inconclusive: -37.8%
2,CCCCc1n(CC(=O)c2ccc(Cl)cc2)c2ccccc2[n+]1C,active: -67.9%
3,COc1cccc(/C=N/NC(=O)CN(C)S(=O)(=O)c2ccccc2)c1OC,inactive: 0%
4,Cc1oc(-c2ccc(Cl)cc2)nc1CS(=O)CC(=O)NCCCN1CC(C)CC(C)C1 (stereo not drawn),active: -70.1%
5,CC(=O)OCCN1c2ccccc2Sc2cnccc21,inconclusive: -36.4%
6,CC(NC(=O)/C(C#N)=C/c1ccc(OCC(=O)O)cc1)c1ccccc1 (stereo not drawn),inactive: -2.05%
7,CCN(c1ccccc1)S(=O)(=O)c1ccc(Cl)c(NC(=O)CN(C)C2CCN(C)CC2)c1,active: -54.6%
8,O=C(Cc1ccc(NC(=O)C2CCN(C(=O)C3CCCC3)CC2)cc1)Nc1ccc(C(=O)N2CCOCC2)cc1,inconclusive: -42.4%
9,Cc1cc2c(cc3c(=O)n(CC(=O)NCCCN4CC(C)CC(C)C4)ncn32)s1 (stereo not drawn),inconclusive: -36%
10,COc1ccc(-c2nc(CN3CCN(Cc4cccc(F)c4)CC3)c(C)o2)cc1,inconclusive: -31.3%
11,Cc1ccccc1Nc1scc(-c2ccc(Cl)cc2)[n+]1-c1ccccc1C,inactive: -15.3%
12,Fc1ccc(CN2CCN(c3ncnc4scc(-c5ccccc5)c34)CC2)cc1,inconclusive: -37.2%
13,C#CCN(C(=O)c1ccc(OC2CCN(Cc3ccccn3)CC2)cc1)C1CCCCC1,inconclusive: -47%
14,O=C(Nn1c(-c2ccncc2)nc2ccccc2c1=O)c1ccccc1Br,inactive: 16.7%
15,COc1ccc(N2CCN(C(=S)NCc3ccccc3)CC2)cc1,inactive: 43.4%
16,O=C(c1ccccc1)c1ccc(OCCCN2CCCCC2)cc1,active: -59.2%
17,CCN(CC)C(=O)C1CCN(Cc2ccc(OCc3ccccc3)cc2)CC1,active: -56.8%
18,Cc1cccc(N2CCN(C(=O)CCCSc3nc4ccccc4[nH]3)CC2)c1C,inconclusive: -41.9%
19,COc1ccc([C@H]2CC(=O)C=C(c3ccc(CO)cc3)C2)cc1,inconclusive: -34.9%
20,COc1ccccc1N1CCN(C(=O)CCCn2nc(C)c([N+](=O)[O-])c2C)CC1,inactive: 46.1%
21,CC(C)COc1ccc(C(=O)NNC(=O)c2ccc(=O)[nH]c2)cc1,inactive: 30.3%
22,CC1CCN(C(=O)CSC2=NS(=O)(=O)c3cc(F)ccc3N2)CC1,inactive: 0.204%

row,Compound,activity change
1,COC(=O)c1c(C)[nH]c(C(=O)COC(=O)c2c(C)noc2C)c1C,inconclusive: -48.7%
2,N#Cc1cccc(NC(=O)C2CCCN(C(=O)c3ccc(Cl)cc3)C2)c1 (stereo not drawn),inconclusive: -35.3%
3,CCN1CCN(c2ccc(S(=O)(=O)N3CCOCC3)cc2NC(=O)c2sccc2C)CC1,inactive: -20.1%
4,COc1cc(C(=O)NC(C)Cc2ccccn2)ccc1OC1CCN(C(C)=O)CC1 (stereo not drawn),inactive: 2.48%
5,CC1=C(C(=O)OC(C)C)C(c2ccc(Br)s2)NC(=O)N1 (stereo not drawn),inconclusive: -38.5%
6,O=C(Nc1cc(C(=O)N2CCN(c3ccccc3)CC2)ccc1Cl)c1cccs1,inconclusive: -33.9%
7,COc1ccc(C(=O)Nc2cc(-c3ccccc3)nn2-c2ccccc2F)cc1,inconclusive: -48.2%
8,Cc1ccn2cc(C(=O)NC3CCN(Cc4ccccc4)CC3)nc2c1,inconclusive: -49.9%
9,COc1ccc(S(=O)(=O)N2CCCCC2)cc1NCC(=O)Nc1ccc(C)cc1,inactive: -2.63%
10,ON=C1c2cc(OCCN3CCCCC3)ccc2-c2ccc(OCCN3CCCCC3)cc21,active: -97.2%
11,Cc1nc2c(o1)C(=O)c1ccccc1C2=Nc1ccccc1,active: -100%
12,O=C(/C=C/C=C/c1ccccc1)c1ccco1,inconclusive: -47.1%
13,COc1ccc(C2=NC(C)(C)Cc3cc(OC)c(OC)cc32)cc1OC,inconclusive: -43.1%
14,O=C(COC(=O)c1ccccc1OCc1ccccc1Cl)NC1CCS(=O)(=O)C1 (stereo not drawn),inconclusive: -33.1%
15,O=C(Cn1c(-c2ccccc2)c[n+]2ccsc12)c1ccc(Br)cc1,active: -86.5%
16,NC(Cc1ccccc1)C(O)(c1ccccc1)c1ccccc1 (stereo not drawn),inconclusive: -43.1%
17,COc1ccccc1NC(=O)c1nn(-c2ccccc2)ccc1=O,inconclusive: -42.1%
18,CC(=O)N1CCOc2ccc(S(=O)(=O)NCC3CCC(C(=O)Nc4ccc(C)cn4)CC3)cc21 (stereo not drawn),inactive: -7.79%
19,COc1ccc(C2=CC(=O)C[C@H](c3ccc(OC)c(OC)c3)C2)cn1,inconclusive: -37%
20,CC(=O)N1N=C(c2ccccc2O)CC1c1cccs1 (stereo not drawn),active: -65.2%
21,Cc1nc(N2CCOCC2)c2cc(-c3ccccc3)sc2n1,inconclusive: -38.9%
